According to publication PMC5540273 (PLoS ONE, 2017):
Shown are results outside the selection of strong results, which stands elsewhere.

What follows are compounds tested on EPHA8. Conditions: concentration: 1 μM,replicates: in singlicate; n = 1.
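Also: KINOMEscan kinase panel screen.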

SMILES	%Inh [%]
O=C1NC(=O)C(c2ccccc2)=C1Nc1cc(Cl)c(O)c(Cl)c1 [SB-390530]	13
O=C1NC(=O)C(c2ccccc2Cl)=C1Nc1cccc(C(=O)O)c1 [SB-390526]	0
O=C1NC(=O)C(c2ccc(Cl)cc2)=C1Nc1ccccc1 [SB-317661]	0
COc1ccc(C2=C(Nc3cccc(Cl)c3)C(=O)NC2=O)cc1 [SB-326892]	0
O=C1NC(=O)C(c2ccc(Cl)cc2)=C1Nc1cccc(O)c1 [SB-333613]	0
O=C(O)c1ccc(-c2nc(-c3ccc(F)cc3)c(-c3ccncc3)[nH]2)cc1 [SB-202620]	0
O=C1NC(=O)C(c2ccc(Cl)cc2)=C1Nc1ccc(O)c(Cl)c1 [SB-405367]	0
O=C1NC(=O)C(c2ccccc2Cl)=C1Nc1ccccc1 [SB-376715]	0
Cc1ccc(C)c(Oc2nccc(-c3c(-c4ccc(F)cc4)ncn3C3CCNCC3)n2)c1.O=C(O)C(F)(F)F.O=C(O)C(F)(F)F.O=C(O)C(F)(F)F [SB-284852]	7
O=C1NC(=O)C(c2ccc(Cl)cc2)=C1Nc1cccc(C(=O)O)c1 [SB-360737]	14
Cc1cc(C)cc(Oc2nccc(-c3c(-c4ccc(F)cc4)ncn3C3CCNCC3)n2)c1.O=C(O)C(F)(F)F.O=C(O)C(F)(F)F.O=C(O)C(F)(F)F [SB-284851]	23
COc1cccc(C2=C(Nc3ccc(SC)cc3)C(=O)NC2=O)c1 [SB-331032]	2
O=C1NC(=O)c2c1c(-c1ccccc1)cc1[nH]c3ccc(O)cc3c21	0
CSc1ccc(NC2=C(c3cccc(Cl)c3)C(=O)NC2=O)cc1 [SB-341528]	0
CS(=O)(=O)c1ccccc1-c1nc(-c2ccc(F)cc2)c(-c2ccncc2)[nH]1 [SB-213663]	13
O=C1NC(=O)C(c2ccccc2)=C1Nc1ccc(Cl)c(C(=O)O)c1 [SB-390532]	2

What follows are compounds tested on EPHB1. Conditions: concentration: 1 μM,replicates: in singlicate; n = 1.

SMILES	%Inh [%]
O=C1NC(=O)C(c2ccccc2)=C1Nc1cc(Cl)c(O)c(Cl)c1 [SB-390530]	13
O=C1NC(=O)C(c2ccccc2Cl)=C1Nc1cccc(C(=O)O)c1 [SB-390526]	4
O=C1NC(=O)C(c2ccc(Cl)cc2)=C1Nc1ccccc1 [SB-317661]	1
COc1ccc(C2=C(Nc3cccc(Cl)c3)C(=O)NC2=O)cc1 [SB-326892]	2
O=C1NC(=O)C(c2ccc(Cl)cc2)=C1Nc1cccc(O)c1 [SB-333613]	0
O=C(O)c1ccc(-c2nc(-c3ccc(F)cc3)c(-c3ccncc3)[nH]2)cc1 [SB-202620]	21
O=C1NC(=O)C(c2ccc(Cl)cc2)=C1Nc1ccc(O)c(Cl)c1 [SB-405367]	0
O=C1NC(=O)C(c2ccccc2Cl)=C1Nc1ccccc1 [SB-376715]	7
Cc1ccc(C)c(Oc2nccc(-c3c(-c4ccc(F)cc4)ncn3C3CCNCC3)n2)c1.O=C(O)C(F)(F)F.O=C(O)C(F)(F)F.O=C(O)C(F)(F)F [SB-284852]	7
O=C1NC(=O)C(c2ccc(Cl)cc2)=C1Nc1cccc(C(=O)O)c1 [SB-360737]	12
Cc1cc(C)cc(Oc2nccc(-c3c(-c4ccc(F)cc4)ncn3C3CCNCC3)n2)c1.O=C(O)C(F)(F)F.O=C(O)C(F)(F)F.O=C(O)C(F)(F)F [SB-284851]	9
COc1cccc(C2=C(Nc3ccc(SC)cc3)C(=O)NC2=O)c1 [SB-331032]	21
O=C1NC(=O)c2c1c(-c1ccccc1)cc1[nH]c3ccc(O)cc3c21	0
CSc1ccc(NC2=C(c3cccc(Cl)c3)C(=O)NC2=O)cc1 [SB-341528]	0
CS(=O)(=O)c1ccccc1-c1nc(-c2ccc(F)cc2)c(-c2ccncc2)[nH]1 [SB-213663]	0
O=C1NC(=O)C(c2ccccc2)=C1Nc1ccc(Cl)c(C(=O)O)c1 [SB-390532]	2

The compounds below were run on EPHB2. Conditions: concentration: 1 μM,replicates: in singlicate; n = 1.

SMILES	%Inh [%]
O=C1NC(=O)C(c2ccccc2)=C1Nc1cc(Cl)c(O)c(Cl)c1 [SB-390530]	1
O=C1NC(=O)C(c2ccccc2Cl)=C1Nc1cccc(C(=O)O)c1 [SB-390526]	0
O=C1NC(=O)C(c2ccc(Cl)cc2)=C1Nc1ccccc1 [SB-317661]	0
COc1ccc(C2=C(Nc3cccc(Cl)c3)C(=O)NC2=O)cc1 [SB-326892]	0
O=C1NC(=O)C(c2ccc(Cl)cc2)=C1Nc1cccc(O)c1 [SB-333613]	1
O=C(O)c1ccc(-c2nc(-c3ccc(F)cc3)c(-c3ccncc3)[nH]2)cc1 [SB-202620]	10
O=C1NC(=O)C(c2ccc(Cl)cc2)=C1Nc1ccc(O)c(Cl)c1 [SB-405367]	8
O=C1NC(=O)C(c2ccccc2Cl)=C1Nc1ccccc1 [SB-376715]	0
Cc1ccc(C)c(Oc2nccc(-c3c(-c4ccc(F)cc4)ncn3C3CCNCC3)n2)c1.O=C(O)C(F)(F)F.O=C(O)C(F)(F)F.O=C(O)C(F)(F)F [SB-284852]	18
O=C1NC(=O)C(c2ccc(Cl)cc2)=C1Nc1cccc(C(=O)O)c1 [SB-360737]	0
Cc1cc(C)cc(Oc2nccc(-c3c(-c4ccc(F)cc4)ncn3C3CCNCC3)n2)c1.O=C(O)C(F)(F)F.O=C(O)C(F)(F)F.O=C(O)C(F)(F)F [SB-284851]	10
COc1cccc(C2=C(Nc3ccc(SC)cc3)C(=O)NC2=O)c1 [SB-331032]	17
O=C1NC(=O)c2c1c(-c1ccccc1)cc1[nH]c3ccc(O)cc3c21	0
CSc1ccc(NC2=C(c3cccc(Cl)c3)C(=O)NC2=O)cc1 [SB-341528]	9
CS(=O)(=O)c1ccccc1-c1nc(-c2ccc(F)cc2)c(-c2ccncc2)[nH]1 [SB-213663]	0
O=C1NC(=O)C(c2ccccc2)=C1Nc1ccc(Cl)c(C(=O)O)c1 [SB-390532]	14
